{"source": "PubChem BioAssay AID652104", "about": "(National Center for Advancing Translational Sciences (NCATS), 2013)", "note": "Among all 410,000 compounds or so, about 7,200 (1.8%) were called active. Inconclusive means that the source gave no clear call. Such entries were picked first, then a sample of the others. Calls come from the whole dose curve; as a rule, active = well fitted activation curve with a large enough effect; inconclusive = small, poorly fitted or top-dose-only effect, or another doubt; inactive = no such curve, though single readings can be large or run the other way. Potencies of inconclusive entries are left out as doubtful fits. Potency is the fitted concentration of half-maximal effect; tags give direction and shape of the fitted curve."}
{"experiment": "qHTS of TDP-43 Inhibitors; note: nearly all actives have a fitted effect of over 50% in size; for growth rescue (activation): % of control where 0% means no effect", "details": "TDP-43 expressing yeast growth rescue, BacTiter-Glo, 24 h; growth rescue (activation): at 46.1 µM (top of the series) unless noted", "procedure,_shortened": "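Luminescence from BacTiter-Glo reports growth of TDP-43-expressing yeast after 24 hr at 30 deg C with compound. Cells were raffinose-pregrown to mid-log, then seeded in galactose medium at OD600=0.02.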"}
{"molecule": "COC(=O)NN1C(=O)C(c2ccccc2)=C(c2ccc(Cl)cc2)C1=O", "Potency": "inconclusive [activator, single point]"}
{"molecule": "O=C(Cn1cnc2ccccc21)Nc1ccc(SC(F)F)cc1", "Potency": "inconclusive [activator, single point]"}
{"molecule": "O=C(ON=C1CCN(S(=O)(=O)c2ccccc2)CC1)c1ccccc1", "Potency": "active: 20 µM"}
{"molecule": "CCOc1ccc(-c2cccc(NC(=O)COc3ccc(Cl)cc3)c2)nn1", "Potency": "inconclusive [activator, single point]"}
{"molecule": "COc1cc(C(=O)OCC(=O)NC(=O)NC2CCCCC2)cc(Cl)c1OC", "Potency": "inconclusive [activator, single point]"}
{"molecule": "CC(C)c1nnc(NC(=O)c2nc(S(=O)(=O)Cc3ccccc3F)ncc2Cl)s1", "Potency": "active: 28.2 µM"}
{"molecule": "COc1ccccc1C(OC(=O)c1cccs1)C(=O)NCc1ccco1", "note": "(stereo not drawn)", "Potency": "inconclusive [activator, full curve, poor fit]"}
{"molecule": "O=C(Nc1nnc(SCc2ccc(F)cc2)s1)c1cccnc1Cl", "Potency": "inconclusive [activator, partial curve]"}
{"molecule": "O=C(Nc1cccc(C(F)(F)F)c1)c1cccnc1NCCO", "growth rescue (activation)": "inactive: 3.88%"}
{"molecule": "CCOC(=O)C1=NN(C(=O)c2ccc(C)cc2)C(O)(c2ccc(Cl)cc2)C1", "note": "(stereo not drawn)", "Potency": "active: 12.6 µM"}
{"molecule": "Cc1ccc(S(=O)(=O)NCCC(=O)Nc2ccc(C)cc2C(=O)c2ccccc2)cc1", "Potency": "active: 22.4 µM"}
{"molecule": "COc1cccc(NC(=O)c2cc3c(=O)n(Cc4cccnc4)ccc3nc2C)c1", "growth rescue (activation)": "inactive: 8.02%"}
{"molecule": "Cc1ccc(-c2nc(S(=O)(=O)c3ccc(C)cc3)c(SCC(=O)NC3CCCCC3)o2)cc1", "growth rescue (activation)": "inactive: 10.7%"}
{"molecule": "COc1ccc2oc(-c3ccccc3)c(C(=O)N(C)C)c2c1", "Potency": "inconclusive [activator, single point]"}
{"molecule": "C[C@H]1CN([C@@H](C)CO)C(=O)c2cc(NC(=O)c3ccncc3)ccc2O[C@H]1CN(C)Cc1ccc(C(=O)O)cc1", "Potency": "inconclusive [activator, single point]"}
{"molecule": "CC(C)C(=O)Nc1ccc2nn(-c3ccccc3)nc2c1", "Potency": "inconclusive [activator, partial curve]"}
{"molecule": "CN(c1ccccc1C(=O)NCc1ccccc1Cl)S(=O)(=O)c1ccccc1", "Potency": "inconclusive [activator, partial curve]"}
{"molecule": "Cc1cc(/C=N/n2c(COc3ccccc3C)nc3ccccc3c2=O)c(O)c([N+](=O)[O-])c1", "Potency": "inconclusive [activator, partial curve]"}
{"molecule": "CCN1C(=O)[C@H]2[C@@H](c3ccc(-c4ccc(F)cc4)c(OC)c3)N3CCC[C@@]3(C(=O)OC)[C@H]2C1=O", "Potency": "inconclusive [activator, single point]"}
{"molecule": "Cc1ccccc1Cn1cc(/C=N/n2cnnc2)c2ccccc21", "Potency": "inconclusive [activator, partial curve]"}
{"molecule": "COC(=O)c1ccc(C(=O)NC2CCCN(Cc3ccc(Cl)cc3)C2)nc1", "note": "(stereo not drawn)", "Potency": "inconclusive [activator, full curve, poor fit]"}
{"molecule": "S=C(NCCc1ccccc1)N1CCc2ccccc2C1", "Potency": "inconclusive [activator, single point]"}
{"molecule": "O=C(c1cc(COc2ccc(F)c(F)c2)on1)N1CCN(C2CCCCC2)C(=O)C1", "Potency": "inconclusive [activator, partial curve]"}
{"molecule": "Cc1cc2nccc(-c3ccc(Cl)cc3Cl)n2n1", "Potency": "inconclusive [activator, partial curve]"}
{"molecule": "CCOC(=O)C1CCCN(C(=O)c2ccc3ccccc3c2)CC1", "note": "(stereo not drawn)", "Potency": "inconclusive [activator, partial curve]"}
{"molecule": "Cc1cccc(C(=O)Nc2sc3c(c2C(=O)NC(C)C)CCCC3)c1", "Potency": "inconclusive [activator, partial curve, poor fit]"}
{"molecule": "COc1ccc(C2=Nn3c(nnc3C3CCCCC3)SC2)cc1OC", "Potency": "inconclusive [activator, partial curve]"}
{"molecule": "O=C(COc1ccc(Br)cc1)Nc1ccc([N+](=O)[O-])cn1", "Potency": "inconclusive [activator, partial curve]"}
{"molecule": "Cc1ccc(NC(=O)C(=O)NCC(c2ccc3c(c2)OCO3)N2CCOCC2)cc1C", "note": "(stereo not drawn)", "growth rescue (activation)": "inactive: 20.2%"}
{"molecule": "CCC(C)NC(=O)c1ccc2nc(CCc3ccccc3)oc2c1", "note": "(stereo not drawn)", "growth rescue (activation)": "inactive: 22.5%"}
{"molecule": "COc1ccc(NC(=O)COc2ccc3c(c2)CCC3)cc1", "Potency": "inconclusive [activator, single point]"}
{"molecule": "CCOc1ccc(NC(=O)c2sccc2-n2cccc2)cc1", "Potency": "inconclusive [activator, partial curve]"}
{"molecule": "CC(=O)N1CCc2c(sc3c2c(=O)n(-c2cc(Cl)ccc2C)c(=O)n3Cc2ccccc2F)C1", "Potency": "inconclusive [activator, single point]"}
{"molecule": "c1ccc(Nc2nnc(SCc3cccc4ccccc34)s2)cc1", "growth rescue (activation)": "inactive: 16.3%"}
{"molecule": "Cc1ccc(/C=C/C(=O)N2CCC(Cc3ccccc3)CC2)cc1", "Potency": "inconclusive [activator, partial curve, poor fit]"}
{"molecule": "COc1ccc2c(c1)CCC1(C)CC(=O)C=C21", "note": "(stereo not drawn)", "Potency": "inconclusive [activator, partial curve]"}
{"molecule": "CSc1c(SCc2ccccc2)cnn(Cc2ccccc2)c1=O", "Potency": "inconclusive [activator, partial curve]"}
{"molecule": "CCOc1ccc2nc(NC(=O)c3c([N+](=O)[O-])cnn3CC)sc2c1", "Potency": "inconclusive [activator, full curve, poor fit]"}
{"molecule": "O=C(CSc1nc(-c2ccccc2)nc2c1Cc1ccccc1O2)N1CCCCC1", "growth rescue (activation)": "inactive: 20.6%"}
{"molecule": "CCOC(=O)c1cnc2ccc(C)cc2c1Nc1ccc(N(CC)CC)cc1", "growth rescue (activation)": "inactive: -16.1%"}
{"molecule": "Nc1nc(-c2ccccc2)c(-c2ccccc2)s1", "growth rescue (activation)": "inactive: 18.5%"}
{"molecule": "COC(=O)c1c(NC(=O)C2CC2)sc2c1CCCC2", "Potency": "inconclusive [activator, partial curve]"}
{"molecule": "O=C(c1ccccc1)N1CCCc2ccccc21", "Potency": "inconclusive [activator, full curve, poor fit]"}
{"molecule": "O=C(OCc1ccccc1)c1cccc(-c2nnc(-c3ccccc3)o2)c1", "growth rescue (activation)": "inactive: -10.8%"}
{"molecule": "S=c1[nH]nc(-c2ccccc2Br)n1Cc1ccccc1", "Potency": "inconclusive [activator, partial curve]"}
{"molecule": "Fc1ccc(Nc2ncnc3c2nc2n3CCCCC2)c(F)c1", "Potency": "active: 11.2 µM"}
{"molecule": "COCCCn1c(C(=O)NC2CCCCC2)cc2c(=O)n3cccc(C)c3nc21", "Potency": "inconclusive [activator, single point]"}
{"molecule": "Cc1ccc(C(=O)Nc2ccc(C(=O)N3CCCCC3C)cc2)cc1", "note": "(stereo not drawn)", "Potency": "inconclusive [activator, partial curve]"}
{"molecule": "CN(C)c1ccnc2sc(C(N)=O)c(N)c12", "growth rescue (activation)": "inactive: 1.81%"}
{"molecule": "O=C(Cc1cccs1)NNC(=S)NC(=O)c1ccc(F)c(F)c1", "Potency": "inconclusive [activator, single point]"}
{"molecule": "Cc1cn([C@H]2C[C@H](O)[C@@H](CCC(=O)NCCc3cnc[nH]3)O2)c(=O)[nH]c1=O", "growth rescue (activation)": "inactive: -6.79%"}
{"molecule": "O=C(O)c1ccccc1C(=O)OC1CCCC2CCCC21", "note": "(stereo not drawn)", "Potency": "active: 22.4 µM"}
{"molecule": "Cn1c(SC/C=C/c2ccccc2)nnc1-c1ccco1", "Potency": "inconclusive [activator, single point]"}
{"molecule": "CCOc1cc2c(cc1O)CCC1C2CCC2(C)C(O)CCC12", "note": "(stereo not drawn)", "Potency": "active: 15.8 µM"}
{"molecule": "O=C(COCc1cc(-c2cccs2)on1)N1CCN(c2ccc(F)cc2)CC1", "Potency": "active: 15.8 µM"}
{"molecule": "CCOC(=O)C1CCN(c2nc3c(S(=O)(=O)c4ccccc4)nnn3c3ccc(Cl)cc23)CC1", "growth rescue (activation)": "inactive: 18.3%"}
{"molecule": "O=S(=O)(NCc1ccc(Cl)cc1)c1ccc2[nH]c3c(c2c1)CCCC3", "growth rescue (activation)": "inactive: -73.9%"}
{"molecule": "CCc1ccc(OCC2c3cc(OC)c(OC)cc3CCN2C(=S)NCCOC)cc1", "note": "(stereo not drawn)", "Potency": "inconclusive [activator, single point]"}
{"molecule": "COCCCNC(=O)C1CCC(Cn2c(=O)c3sccc3n(C)c2=O)CC1", "note": "(stereo not drawn)", "growth rescue (activation)": "inactive: 1.19%"}
{"molecule": "COc1ccc2c3c(cccc13)OCC2=O", "Potency": "inconclusive [activator, partial curve]"}
{"molecule": "Cc1cccc(C(=O)NCCc2nc3ccccc3n2Cc2ccc(Cl)cc2)c1", "Potency": "inconclusive [activator, partial curve]"}
{"molecule": "Cc1nc2ncccn2c1-c1csc(Nc2ccccc2)n1", "growth rescue (activation)": "inactive: -7.7%"}
{"molecule": "COc1cc(S(=O)(=O)NCc2ccc3c(c2)OCO3)c(OC)cc1C", "Potency": "inconclusive [activator, partial curve]"}
{"molecule": "COc1ccc(NC(=O)c2cc(S(=O)(=O)N3CCCCC3)ccc2N2CCCCC2)cn1", "Potency": "inconclusive [activator, single point]"}
{"molecule": "Clc1ccc2oc(-c3ccccc3)nc2c1", "growth rescue (activation)": "inactive: 11.3%"}
{"molecule": "O=C(CN1CC[n+]2c(-c3cccs3)csc21)c1ccc(-c2ccccc2)cc1", "Potency": "active: 3.55 µM"}
{"molecule": "CCOC(=O)c1ccc2nc(C)cc(Nc3ccc(OC(C)C)cc3)c2c1", "growth rescue (activation)": "inactive: 5.64%"}
{"molecule": "Cc1cccc(N2CCN(C(=O)Cn3ncc4c5ccccc5n(C)c4c3=O)CC2C)c1", "note": "(stereo not drawn)", "Potency": "inconclusive [activator, single point]"}
{"molecule": "Cc1ccc(NC(=O)c2[nH]cnc2C(=O)NN)cc1", "Potency": "inconclusive [activator, single point]"}
{"molecule": "Brc1cccc(CSc2nnc(-c3ccncc3)o2)c1", "Potency": "inconclusive [activator, single point]"}
{"molecule": "c1ccc2c(c1)Oc1cccc3cccc-2c13", "growth rescue (activation)": "inactive: 9.25%"}
{"molecule": "COC(=O)c1ccc(NC(=S)N2CCN(CCO)CC2)cc1", "growth rescue (activation)": "inactive: -2.38%"}
{"molecule": "O=S(=O)(Nc1ccc(F)c(Cl)c1)c1ccc(Br)s1", "growth rescue (activation)": "inconclusive: -90.7% [activator]"}
